According to the supplement of paper PMC6089552:
About 300 (9.4%) of roughly 3,200 compounds showed activity. The list shows a part of the results, in another mix than the full data.

Test system: A673/TR/shEF
Test: cell viability (LOESS-normalised, relative to median of negative controls) (log2 ratio); higher = more viable cells (less compound effect), active = hit call of the paper (over 3 MAD below the median)
Settings: treatment time: 72 h
Method in brief: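 Viability of A673/TR/shEF Ewing sarcoma cells was determined by CellTiter-Glo luminescence. The cells, at 1,500 per well in 384-well plates, were grown with or without doxycycline from 24 h before compound addition to switch on EWS-FLI1 shRNA knockdown, then exposed for three days to library compounds at two or more concentrations or to DMSO controls. Signals were LOESS-corrected plate by plate, normalised to the negative-control median and log2-transformed.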

[1] = 0.25 µM, library screen: screen1, EWS-FLI1 expression: high (no doxycycline)
[2] = 0.25 µM, library screen: screen1, EWS-FLI1 expression: low (doxycycline-induced shRNA knockdown)
[3] = 2.5 µM, library screen: screen1, EWS-FLI1 expression: high (no doxycycline)
[4] = 2.5 µM, library screen: screen1, EWS-FLI1 expression: low (doxycycline-induced shRNA knockdown)
[5] = 2.8 µM, library screen: screen3, EWS-FLI1 expression: high (no doxycycline)
[6] = 8.3 µM, library screen: screen3, EWS-FLI1 expression: high (no doxycycline)
[7] = 25 µM, library screen: screen3, EWS-FLI1 expression: high (no doxycycline)
[8] = 25 µM, library screen: screen3, EWS-FLI1 expression: low (doxycycline-induced shRNA knockdown)
[9] = 0.103 µM, library screen: screen3, EWS-FLI1 expression: high (no doxycycline)
[10] = 0.103 µM, library screen: screen3, EWS-FLI1 expression: low (doxycycline-induced shRNA knockdown)
[11] = 0.25 µM, library screen: screen2, EWS-FLI1 expression: high (no doxycycline)
[12] = 0.25 µM, library screen: screen2, EWS-FLI1 expression: low (doxycycline-induced shRNA knockdown)
[13] = 0.308 µM, library screen: screen3, EWS-FLI1 expression: high (no doxycycline)
[14] = 0.308 µM, library screen: screen3, EWS-FLI1 expression: low (doxycycline-induced shRNA knockdown)
[15] = 0.926 µM, library screen: screen3, EWS-FLI1 expression: high (no doxycycline)
[16] = 0.926 µM, library screen: screen3, EWS-FLI1 expression: low (doxycycline-induced shRNA knockdown)
[17] = 2.5 µM, library screen: screen2, EWS-FLI1 expression: high (no doxycycline)
[18] = 2.5 µM, library screen: screen2, EWS-FLI1 expression: low (doxycycline-induced shRNA knockdown)
[19] = 2.8 µM, library screen: screen3, EWS-FLI1 expression: low (doxycycline-induced shRNA knockdown)
[20] = 8.3 µM, library screen: screen3, EWS-FLI1 expression: low (doxycycline-induced shRNA knockdown)

Measured: cell viability (log2)

C[C@]12CC[C@@H]3c4ccc(O)cc4CC[C@H]3[C@@H]1C[C@@H](O)[C@@H]2O
inactive: [1] 0.127 | [2] -0.0345 | [3] 0.182 | [4] 0.105

Cc1nc(N)sc1-c1ccnc(Nc2ccc(N3CCOCC3)cc2)n1
active: [5] -0.219 | [6] -0.377 | [7] -0.478 | [8] -0.719

CCOc1ccc(C(=O)c2ccc(O)c(O)c2O)cc1
inactive: [1] 0.12 | [2] 0.127 | [3] 0.232 | [4] 0.262

CCc1cccc2c3c([nH]c12)C(CC)(CC(=O)O)OCC3 (stereo not given)
inactive: [9] 0.0182 | [10] 0.14 | [1] 0.148 | [2] -0.0011 | [11] 0.149 | [12] 0.0812 | [13] 0.108 | [14] 0.0435 | [15] 0.0757 | [16] 0.0917 | [3] 0.117 | [4] 0.106 | [17] 0.0915 | [18] 0.0886 | [5] 0.147 | [19] 0.084 | [6] 0.0644 | [20] 0.0759 | [7] 0.0939 | [8] 0.131

Cc1noc(NS(=O)(=O)c2ccc(N)cc2)c1C
inactive: [9] 0.104 | [10] -0.00328 | [1] 0.0717 | [2] 0.133 | [13] 0.102 | [14] 0.0583 | [15] 0.114 | [16] 0.0666 | [3] 0.158 | [4] 0.22 | [5] 0.115 | [19] 0.0541 | [6] 0.0836 | [20] 0.0532 | [7] 0.11 | [8] 0.129

CO[C@H]1C=C[C@@]23c4cc5c(cc4CN(C[C@@H]2O)[C@H]3C1)OCO5
inactive: [1] 0.0568 | [2] 0.0269
active: [3] -0.415 | [4] -0.623

C=CC(=O)N1CCC[C@@H](n2nc(-c3ccc(Oc4ccccc4)cc3)c3c(N)ncnc32)C1
inactive: [9] -0.0901 | [10] 0.0229 | [13] -0.0466 | [14] 0.0297 | [15] 0.021 | [16] 0.0235 | [5] -0.0315 | [19] 0.0823 | [6] -0.0558 | [20] 0.16 | [7] -0.158 | [8] 0.0664

CC1=C(CC(=O)O)c2cc(F)ccc2/C1=C\c1ccc([S+](C)[O-])cc1 (stereo not given)
inactive: [9] 0.117 | [10] -0.015 | [1] 0.167 | [2] 0.1 | [11] 0.24 | [12] 0.124 | [13] 0.087 | [14] 0.0827 | [15] 0.19 | [16] 0.0733 | [3] 0.242 | [4] 0.194 | [17] 0.129 | [18] 0.114 | [5] 0.19 | [19] 0.0382 | [6] 0.0514 | [20] 0.0676 | [7] 0.151 | [8] 0.0677

COC(=O)[C@@H]1OC(=O)C2OC23[C@@]1(C)CCC1[C@@]2(C)CCC(=O)C(C)(C)C2C[C@@H](OC(C)=O)[C@]13C (stereo not given in full)
inactive: [1] 0.0302 | [2] 0.00682 | [3] 0.123 | [4] 0.0574

Cn1c([N+](=O)[O-])cnc1COC(N)=O
inactive: [1] 0.137 | [2] -0.0161 | [3] 0.0994 | [4] 0.189

CN1CC(=O)N=C1N
inactive: [1] 0.0593 | [2] 0.0447 | [3] 0.041 | [4] 0.0685

O=C(O)CCCCCCCn1ccnc1
inactive: [1] 0.124 | [2] 0.0433 | [3] 0.168 | [4] 0.0749

NC(N)=O
inactive: [1] -0.0272 | [2] 0.118 | [3] 0.131 | [4] 0.195

C=C1[C@@H]([C@@]2(C)C=CC(=O)C(C)(C)[C@@H]2CC(=O)OC)CC[C@@]2(C)C(c3ccoc3)OC(=O)[C@H]3O[C@]132 (stereo not given in full)
inactive: [1] 0.109 | [2] 0.0181 | [3] 0.0641 | [4] 0.0727

CC(C)NC[C@H](O)c1ccc(O)c(O)c1
inactive: [11] 0.15 | [12] 0.0965 | [17] 0.0541 | [18] 0.0273

C[C@@H]1CC[C@@]2(OC1)O[C@H]1C[C@H]3[C@@H]4CC[C@@H]5C[C@@H](O)CC[C@]5(C)[C@H]4CC[C@]3(C)[C@H]1[C@@H]2C
inactive: [1] 0.0641 | [2] 0.0518 | [3] 0.077 | [4] 0.0287

NCCS(=O)O
inactive: [11] 0.169 | [12] -0.00866 | [17] 0.0939 | [18] 0.0741
